Assay results reported in PubChem BioAssay AID686971 (National Center for Advancing Translational Sciences (NCATS), 2013).
About 7,500 (2.1%) of roughly 360,000 compounds were called active. Inconclusive means that the source gave no clear call. Such entries were picked first, then a sample of the others. The call rests on the fitted dose curve; in most records, active means well fitted cell-killing curve with a large enough effect; inconclusive means small, poorly fitted or top-dose-only effect, or effect the other way, or another doubt; inactive means no such curve, though single readings can be large or run the other way. No potency is given beside an inconclusive call; the fits are too rough.

Experiment: qHTS for induction of synthetic lethality in tumor cells producing 2HG: qHTS for the HT-1080-IDH1KD cell line;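 on activity, negative = toxicity: 0% = DMSO wells and -100% = cell-free medium wells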
Conditions: HT-1080 IDH1 knockdown viability, ATP luminescence, 48 h; activity, negative = toxicity: at 46.1 µM (top of the series) unless noted
Outline: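 Using the IDH1-knockdown HT-1080 line run in the same batch and compound series as the NT line, viability after 48 h at 37 °C was determined by CellTiter-Glo luminescence and expressed as % activity.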
Potency means the concentration at half of the fitted maximal effect; tags describe the fitted curve by direction and shape.

SMILES | Potency | activity, negative = toxicity
Cc1ccccc1N1CCN(C(=O)c2cc(C3CC3)nn2-c2ccccc2)CC1 | inconclusive [cytotoxic, single point] | 
N/C(=N\OC(=O)c1cc([N+](=O)[O-])ccc1Cl)c1cccnc1 |  | inactive: 21.2%
COc1ccc(C(C(=O)NC2CCCCC2)N(C(=O)CCl)c2ccc(Cl)cc2)cc1 (configuration not stated) | active: 1.46 µM | 
COc1ccc(-c2nc(NC(=O)C3CC(=O)N(c4ccc5c(c4)OCCO5)C3)sc2C)cc1 (configuration not stated) | inconclusive [cytotoxic, full curve] | 
O=C(O)CSc1cc(NS(=O)(=O)c2cccc([N+](=O)[O-])c2)c2ccccc2c1O | active: 18.4 µM | 
Cc1ccccc1-c1cc(C(=O)NCc2ccco2)nn1CC1CC(c2cccc([N+](=O)[O-])c2)=NO1 (configuration not stated) |  | inactive: -7.29%
Cc1ccccc1CNC(=O)CCCn1ncn2c(cc3occc32)c1=O |  | inactive: 17.9%
O=C(Nc1nc2cc3c(cc2s1)OCO3)c1ccco1 | inconclusive [cytotoxic, single point] | 
N#CC1=C(N)NC(SCc2ccc(Cl)cc2)=C(C#N)C12CCCCC2 | active: 20.6 µM | 
Nc1ccccc1C(=O)Nc1ccc(Cl)cc1Cl |  | inactive: 3.01%
O=C(Nc1ccccc1)/C(=C/c1ccc([N+](=O)[O-])cc1)NC(=O)c1ccco1 | inconclusive [cytotoxic, single point] | 
CC(C)N(C)c1ncnc2c1ncn2[C@H]1CN(Cc2ccco2)C[C@@H](CO)O1 |  | inactive: 0.592%
CC(C)(C)OC(=O)N1C[C@H](O)C[C@H]1C(=O)OCC(=O)c1ccc([N+](=O)[O-])cc1 |  | inactive: 12.7%
COc1cccc(Nc2nc(-c3cccs3)nc3ccccc23)c1 | inconclusive [cytotoxic, single point] | 
CCCCCC(=O)Nc1nc2ccccc2[nH]1 | inconclusive [cytotoxic, single point] | 
O=C(C[C@H]1C[C@H](C(=O)N2CCOCC2)[C@@]2(CCC3CCCC3)c3[nH]c4cc(-c5ccco5)ccc4c3CCN2C1=O)NCCN1CCOCC1 | inconclusive [cytotoxic, single point] | 
C(=C\c1ccccc1)/CN1CCN(C(c2cccs2)c2nnnn2Cc2ccccc2)CC1 (configuration not stated) | inconclusive [cytotoxic, single point] | 
c1ccc2cc(CNCc3cccc4ccccc34)ccc2c1 | active: 23.1 µM | 
C=C1C(=O)OC2C=C(CO)C3OC3C3OC3(C)CC(OC(=O)/C(=C/C)COC(C)=O)C12 (configuration not stated) | active: 5.17 µM | 
O=C(N/N=C/c1ccccc1O)c1cc[n+]([O-])cc1 | inconclusive [cytotoxic, partial curve] | 
CC1CN(c2sc(S(C)(=O)=O)nc2S(=O)(=O)c2ccc(Cl)cc2)CC(C)O1 (configuration not stated) |  | inactive: 12%
CCN(CC(=O)NCc1ccc(F)cc1)C(=O)c1cccnc1SC |  | inactive: 12%
Cc1ccc(S(=O)(=O)N(C)C)cc1NC(=O)c1cncc(Br)c1 | inconclusive [cytotoxic, partial curve] | 
O=C(CNC(=O)c1ccc2c(c1)OCO2)N/N=C(Br)/C=C/c1ccccc1 | active: 14.6 µM | 

SMILES | Potency | activity, negative = toxicity
CCc1ccc(C(C)NC(=O)/C(C#N)=C\c2cn[nH]c2-c2ccccc2)cc1 (configuration not stated) | inconclusive [cytotoxic, single point] | 
N#C/C(=N\Nc1ccccc1Cl)C(=O)c1ccccc1 | inconclusive [cytotoxic, single point] | 
COc1ccc(OC)c(C2=C/C(=C/c3ccccn3)C(=O)O2)c1 |  | inactive: 2.7%
O=C(CCC1CCCCC1)NCc1cccs1 |  | inactive: 8.43%
COC(=O)c1sc(N)c(C(=O)OC)c1Cn1ncc(Cl)c(Cl)c1=O | inconclusive [cytotoxic, single point] | 
c1ccc(Nc2cc(-c3ccccc3)nc3ncnn23)cc1 | inconclusive [cytotoxic, single point] | 
COc1ccc(-n2nnnc2C(c2cccs2)N2CCN(C/C=C/c3ccccc3)CC2)cc1 (configuration not stated) | inconclusive [cytotoxic, partial curve] | 
Cn1c(Sc2ccc(Cl)cc2)c(C=O)c2ccccc21 | inconclusive [cytotoxic, partial curve] | 
CN(C)CCNc1cccc2sc3ccc(O)cc3c(=O)c12 | active: 11.6 µM | 
CCOc1cc(C2C3=C(CCCC3=O)Nc3ccc4ncccc4c32)ccc1O (configuration not stated) | inconclusive [cytotoxic, partial curve] | 
CC(C)Cn1c(SC(C)C(=O)Nc2ccc3c(c2)OCCO3)nc2ccccc2c1=O (configuration not stated) |  | inactive: -26%
Cc1csc2nc(O)c(C(=O)NCCCc3ccccc3)c(=O)n12 |  | inactive: 10.5%
O=C(Nc1cccc(NC(=O)c2cccs2)c1)c1ccc([N+](=O)[O-])o1 | active: 23.1 µM | 
Cc1cccc(NC(=O)c2cc(-c3cccnc3)nc3c(C)cccc23)n1 | inconclusive [cytotoxic, single point] | 
Cc1ccc(C(=O)Nc2cccc(C(=O)O)c2)cc1S(=O)(=O)N1CCCCC1 |  | inactive: -1.83%
NC(c1csc(NC(=O)Nc2ccccc2Cl)n1)C1CCCCC1 (configuration not stated) | inconclusive [cytotoxic, single point] | 
COc1cccc(OC)c1C(=O)Nc1cc2c(cc1N1CCOCC1)n(C)c(=O)n2C |  | inactive: 3.84%
CC1(C)CC2(C)OC2C2(C1)N=NC(=Nc1ccccc1)O2 (configuration not stated) | inconclusive [cytotoxic, partial curve, poor fit] | 
COc1ccc2cc(C#N)c(N3CCN(C(=O)c4ccccc4C)CC3)nc2c1 | inconclusive [cytotoxic, single point] | 
Cc1cc(C(=O)NNc2ccc(F)cc2F)no1 | active: 5.17 µM | 
OC(c1cccc(F)c1)c1ncc(-c2ccc(Oc3ccccc3)cc2)[nH]1 (configuration not stated) | inconclusive [cytotoxic, single point] | 
CC(O)Cn1c(=O)c2c(nc(Br)n2Cc2ccccc2)n(C)c1=O (configuration not stated) | active: 20 µM | 
CCOC(=O)C1(CCc2ccccc2)CCN(Cc2c(O)cccc2OC)CC1 | active: 32.6 µM | 
